Data published in the supplement of paper PMC3334620.
The full ranking holds about 33,000 sequences; the median of “E-score (-0.5 to 0.5)” is about -0.035, and the highest 2% start at about 0.35. The list shows a part of the results.

Target: T1, Pdr3 (UniProt P33200)
T1 sequence: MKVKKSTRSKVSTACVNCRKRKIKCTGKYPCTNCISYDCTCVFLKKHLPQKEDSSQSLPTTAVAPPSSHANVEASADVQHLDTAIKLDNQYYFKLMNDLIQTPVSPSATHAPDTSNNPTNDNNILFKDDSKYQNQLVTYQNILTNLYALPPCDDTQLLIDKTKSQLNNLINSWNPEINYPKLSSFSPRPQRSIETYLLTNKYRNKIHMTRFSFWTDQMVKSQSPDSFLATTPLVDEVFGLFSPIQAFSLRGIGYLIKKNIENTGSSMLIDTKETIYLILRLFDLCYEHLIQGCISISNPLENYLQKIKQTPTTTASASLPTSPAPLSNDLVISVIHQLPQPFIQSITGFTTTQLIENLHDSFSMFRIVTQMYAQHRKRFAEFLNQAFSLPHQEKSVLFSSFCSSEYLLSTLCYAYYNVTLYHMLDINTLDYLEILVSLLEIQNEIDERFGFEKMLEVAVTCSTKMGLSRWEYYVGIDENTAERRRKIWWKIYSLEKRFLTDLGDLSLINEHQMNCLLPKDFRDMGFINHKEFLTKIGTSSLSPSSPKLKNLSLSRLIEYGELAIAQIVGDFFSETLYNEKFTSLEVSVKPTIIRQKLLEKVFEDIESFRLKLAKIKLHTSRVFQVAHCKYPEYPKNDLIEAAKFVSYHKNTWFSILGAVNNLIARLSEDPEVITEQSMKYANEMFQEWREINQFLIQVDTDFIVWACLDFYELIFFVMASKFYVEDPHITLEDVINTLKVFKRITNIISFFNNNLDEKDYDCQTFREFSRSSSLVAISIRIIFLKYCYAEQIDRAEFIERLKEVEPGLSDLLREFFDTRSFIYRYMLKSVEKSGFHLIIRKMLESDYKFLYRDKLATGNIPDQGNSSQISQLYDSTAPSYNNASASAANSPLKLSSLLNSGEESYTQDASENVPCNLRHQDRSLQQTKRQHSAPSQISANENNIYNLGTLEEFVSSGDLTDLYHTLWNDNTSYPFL
Assay: PBM E-score (8-mer binding enrichment) (E-score (-0.5 to 0.5)); higher = stronger / more preferred TF binding; most listed sequences are background and not binding sites
Conditions: protein concentration: 200 nM; construct: GST-full length
Summary of the method: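 GST-tagged yeast TFs (full-length or DNA-binding domain) were made by PURExpress in vitro transcription/translation and applied at about 100-200 nM to universal all-10-mer Agilent arrays. The arrays were made double-stranded by primer extension, on fresh or once-stripped slides. Bound protein was detected with fluorescent anti-GST, and scans were normalised with masliner. Each ungapped eight-base word, pooled with its reverse complement, received an E-score (modified Wilcoxon-Mann-Whitney statistic) from the Universal PBM Analysis Suite.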

Sequence | PBM E-score
CCCATAAC | -0.0757
AGTTTATA | 0.183
ATCAGTAG | -0.0545
ATCCGACC | 0.193
ACTGCGCA | 0.0867
AATTACTG | 0.0363
ACCCCATC | -0.0325
CATGGACC | 0.00539
ACAGTTGA | -0.0688
AGGTAAAG | 0.025
ACAAGCCC | -0.157
CCGGACCA | 0.337
ACTTGCGA | -0.00162
AAGTATAT | 0.098
ATGGCGTC | 0.0108
AGCTTCCG | 0.416
CCATGTCG | 0.00323
CGAATTAA | -0.0119
AAACGTGC | -0.137
AACAGCCT | -0.133
ATCCTGAC | -0.106
GCCACCGA | -0.0867
AGACCGAC | 0.0765
AGCACTGA | -0.061
ACGTTATC | -0.0723

Sequence | PBM E-score
CGCTAACA | -0.0873
TCTTGCAA | 0.148
ATATTTTA | 0.0395
CGAGTATA | 0.0546
ACATATGC | -0.316
CCCAGGGA | -0.168
CGAAATCC | 0.207
TGGAGTAA | -0.0368
ATCGATTG | 0.0872
AACGCCAG | 0.151
GCAAGGGC | -0.123
CCGGCACC | 0.369
CTTATGCC | -0.0276
CACGCGCG | 0.0707
TTGCCAAA | -0.0395
AACCCTGA | 0.103
TACAAACA | -0.0403
CATGCCTA | -0.0556
CCCTCGCC | -0.107
GAACATGA | 0.0104
CCGCTTAC | -0.109
CGAAATTA | 0.091
CATCCCGG | 0.431
ACCTGTAG | -0.102
GTGGCAGA | -0.102

Sequence | PBM E-score
ATGTGCCG | 0.0682
ACAAGAAG | 0.0846
ATAAGAGG | 0.0703
CAAGTGCG | 0.064
CGCAGAAG | -0.09
ATACCGGA | 0.303
AGGCCGGG | 0.141
AGATCTCC | 0.0532
GGGTCGAA | -0.0311
TCGCGCGA | 0.268
AGAACTAG | -0.221
ATTGATCC | 0.322
TAACGTTA | 0.105
CGAATACC | 0.0404
AGATCCAA | 0.00027
AAACTCAC | -0.0294
ACGACTGC | -0.264
GAGCCACA | -0.139
CGCCAAAG | -0.0275
ATAGATTG | 0.0442
CTGTGCTA | -0.0248
CTATCGCA | -0.17
GCCTTGTA | -0.119
ATGTGACA | -0.141
CGTAGGTA | 0.0651

Sequence | PBM E-score
CCCAATCA | -0.0364
GCGTCAAA | -0.0421
CGGTTACC | 0.101
ACACGCGT | 0.0498
AGTTGCTC | -0.0876
GCAACGCC | 0.0137
ATATTAAG | 0.0281
AAAACTTT | -0.074
AACGGCCA | 0.172
CACTGGTC | -0.078
AAATGACC | -0.0715
GGCCTAAA | -0.149
ACAGACAG | -0.0138
ACCAGTGG | -0.00822
ACTGTCGA | -0.129
GACGTCGA | 0.115
ATCCTTTC | -0.132
GGCGGGGA | 0.292
CCGATCTA | 0.0827
ACAGTGGT | -0.156
CGAAACGC | -0.176
AGTAGCGG | 0.134
GAATGCCA | 0.0772
AGGTATAG | -0.0746
CACGACCA | -0.131

Sequence | PBM E-score
CTACCTGC | 0.0949
ATCCGAGA | 0.312
AGCTGGGA | -0.0146
CACAGCCA | -0.0191
AGGCCGTC | 0.0206
GAGTACCC | -0.00434
CGCCCAGC | 0.172
GCGTAGGA | -0.0309
CTGAACAC | 0.0409
AGCCATCC | 0.133
ATGGGGTC | 0.0921
TGAGGTAA | -0.165
CGTAAACC | -0.16
CGTCAAGA | -0.0703
TAGACCTA | -0.273
CTTCTTTC | -0.0696
GCGCGAGA | 0.0398
GCTTAAGC | -0.0198
CTCGGATA | 0.273
GATACACC | 0.154
AGGCCGGA | 0.256
ACGAACGT | 0.00537
CATAGACG | 0.0236
GAAGTCTC | -0.128
CGGAAACA | 0.451

Sequence | PBM E-score
CGAGGGCC | 0.0701
AAAGGAGG | -0.134
CAATAATC | 0.114
ATGATCAT | -0.0826
CCCATTTA | -0.053
CACAAGCC | 0.0747
CGACGATC | 0.198
AACAGTGT | -0.213
CGCGACAA | 0.234
AGCCACAT | -0.236
TAATATTA | 0.293
CCTCTCGC | -0.145
ATCGCAAT | 0.00216
CCACATAA | 0.0311
CGGCGCAA | 0.185
ACGTCACT | -0.011
CTCACTTC | -0.105
GATTTGGC | 0.0223
AGCATAGA | -0.12
ATGCCCGA | -0.0424
AGAGACGC | 0.114
CGGTTGAA | 0.172
GTACAGGA | -0.0884
ACGCCGTG | 0.113
ACTGTAAT | -0.142

Sequence | PBM E-score
ATTCTCAC | 0.0366
CTAGAGCA | -0.165
ATCTACTC | 0.121
GCTATGCA | -0.277
ATCGGAGG | 0.0523
ACATGCGG | 0.156
AGTGGAGG | -0.0928
TAGAATGA | -0.19
ACCAGTCC | -0.0869
ACTTTTTG | -0.0594
GTACTACA | -0.109
ATCCCGAG | 0.395
ATTAGGCC | -0.0713
GAGGAATA | 0.0358
CATGTTAA | -0.0262
GCCGCGAC | 0.0926
AATCATCG | -0.05
GGGCGACA | 0.102
CGGTCCAC | -0.0157
AAGAGCCG | 0.199
GGGCACGA | -0.0993
GCCCCGGC | 0.163
